# Experimental data published in the supplement of paper PMC8728848.
# The list shows a part of the results.
# B1: Jacalin (Artocarpus integrifolia) (protein)
# chain: MAYSSLLSLSVLALLFSISSADTRKWFLANGINQNPIGIIEAAVGVSEDLLNLNGMEAKNDEQSGISQTVIVGPWGAKVSTSSNGKAFDDGAFTGIREINLSYNKETAIGDFQVVYDLNGSPYVGQNHKSFITGFTPVKISLDFPSEYIMEVSGYTGNVSGYVVVRSLTFKTNKKTYGPYGVTSGTPFNLPIENGLIVGFKGSIGYWLDYFSMYLSL
# Assays:
# Assay in all cases: glycan array binding signal (z-score within array); higher = stronger binding
# Details in all cases: glycan notation: IUPAC condensed, linker removed
# [1] = biological target: GlcNAc6S(b1-3)Gal(b1-4)GlcNAc
# How it was run: (§1)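 Columns mapping to the same glycan were averaged after glycan names were converted to IUPAC-condensed notation. The data come from 3228 arrays in the Consortium for Functional Glycomics database, limited to those with an available protein sequence. Binding is reported as a within-array Z-score averaged across arrays of one protein sequence and across linkers.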
# Kdn(a2-3)Gal(b1-3)GalNAc = biological target: Kdn(a2-3)Gal(b1-3)GalNAc
# How it was run: as §1
# Kdn(a2-3)Gal(b1-3)GlcNAc = biological target: Kdn(a2-3)Gal(b1-3)GlcNAc
# How it was run: as §1
# Kdn(a2-3)Gal(b1-4)Glc = biological target: Kdn(a2-3)Gal(b1-4)Glc
# How it was run: as §1
# Kdn(a2-3)Gal(b1-4)GlcNAc = biological target: Kdn(a2-3)Gal(b1-4)GlcNAc
# How it was run: as §1
# [2] = biological target: Kdn(a2-3)Gal(b1-4)[Fuc(a1-3)]GlcNAc
# How it was run: as §1
# Kdn(a2-6)Gal(b1-4)GlcNAc = biological target: Kdn(a2-6)Gal(b1-4)GlcNAc
# How it was run: as §1
# [3] = biological target: Man(a1-2)Man(a1-2)Man(a1-3)Man
# How it was run: as §1
# [4] = biological target: Man(a1-2)Man(a1-2)Man(a1-6)[Man(a1-3)]Man
# How it was run: as §1
# Man(a1-2)Man(a1-3)Man = biological target: Man(a1-2)Man(a1-3)Man
# How it was run: as §1
# [5] = biological target: Man(a1-2)Man(a1-3)[Man(a1-2)Man(a1-6)]Man
# How it was run: as §1
# [6] = biological target: Man(a1-2)Man(a1-3)[Man(a1-2)Man(a1-6)]Man(a1-6)[Man(a1-2)Man(a1-2)Man(a1-3)]Man
# How it was run: as §1
# [7] = biological target: Man(a1-2)Man(a1-3)[Man(a1-2)Man(a1-6)]Man(a1-6)[Man(a1-2)Man(a1-2)Man(a1-3)]Man(b1-4)GlcNAc(b1-4)GlcNAc
# How it was run: as §1
# [8] = biological target: Man(a1-2)Man(a1-3)[Man(a1-6)]Man(a1-6)[Man(a1-2)Man(a1-3)]Man(b1-4)GlcNAc(b1-4)GlcNAc
# How it was run: as §1
# [9] = biological target: Man(a1-2)Man(a1-6)[Man(a1-3)]Man(a1-6)[Man(a1-2)Man(a1-2)Man(a1-3)]Man
# How it was run: as §1
# [10] = biological target: Man(a1-2)Man(a1-6)[Man(a1-3)]Man(a1-6)[Man(a1-2)Man(a1-2)Man(a1-3)]Man(b1-4)GlcNAc(b1-4)GlcNAc
# How it was run: as §1
# Man(a1-3)[Man(a1-6)]Man = biological target: Man(a1-3)[Man(a1-6)]Man
# How it was run: as §1
# [11] = biological target: Man(a1-3)[Man(a1-6)]Man(a1-6)[Man(a1-2)Man(a1-3)]Man(b1-4)GlcNAc(b1-4)GlcNAc
# How it was run: as §1
# [12] = biological target: Man(a1-3)[Man(a1-6)]Man(a1-6)[Man(a1-3)]Man
# How it was run: as §1
# [13] = biological target: Man(a1-3)[Man(a1-6)]Man(a1-6)[Man(a1-3)]Man(b1-4)GlcNAc(b1-4)GlcNAc
# How it was run: as §1
# [14] = biological target: Man(a1-3)[Man(a1-6)]Man(b1-4)GlcNAc(b1-4)GlcNAc
# How it was run: as §1
# [15] = biological target: Man(a1-3)[Man(a1-6)]Man(b1-4)GlcNAc(b1-4)[Fuc(a1-6)]GlcNAc
# How it was run: as §1
# Man(a1-6)Man = biological target: Man(a1-6)Man
# How it was run: as §1
# Man(b1-4)GlcNAc = biological target: Man(b1-4)GlcNAc
# How it was run: as §1
# MurNAc(b1-4)GlcNAc = biological target: MurNAc(b1-4)GlcNAc
# How it was run: as §1
# Neu5Ac(a2-3)Gal = biological target: Neu5Ac(a2-3)Gal
# How it was run: as §1
# [16] = biological target: Neu5Ac(a2-3)Gal(b1-3)GalNAc
# How it was run: as §1
# [17] = biological target: Neu5Ac(a2-3)Gal(b1-3)GalNAc(b1-3)Gal(a1-4)Gal(b1-4)Glc
# How it was run: as §1
# [18] = biological target: Neu5Ac(a2-3)Gal(b1-3)GalNAc(b1-3)Gal(b1-4)GlcNAc
# How it was run: as §1
# [19] = biological target: Neu5Ac(a2-3)Gal(b1-3)GalNAc(b1-4)[Neu5Ac(a2-3)]Gal(b1-4)Glc
# How it was run: as §1
# [20] = biological target: Neu5Ac(a2-3)Gal(b1-3)GalNAc(b1-4)[Neu5Ac(a2-8)Neu5Ac(a2-3)]Gal(b1-4)Glc
# How it was run: as §1
# [21] = biological target: Neu5Ac(a2-3)Gal(b1-3)GalNAc6S
# How it was run: as §1
# [22] = biological target: Neu5Ac(a2-3)Gal(b1-3)GlcNAc
# How it was run: as §1
# [23] = biological target: Neu5Ac(a2-3)Gal(b1-3)GlcNAc(b1-2)Man
# How it was run: as §1
# [24] = biological target: Neu5Ac(a2-3)Gal(b1-3)GlcNAc(b1-2)Man(a1-3)[GlcNAc(b1-4)][Neu5Ac(a2-3)Gal(b1-3)GlcNAc(b1-2)Man(a1-6)]Man(b1-4)GlcNAc(b1-4)GlcNAc
# How it was run: as §1
# [25] = biological target: Neu5Ac(a2-3)Gal(b1-3)GlcNAc(b1-2)Man(a1-3)[Neu5Ac(a2-3)Gal(b1-3)GlcNAc(b1-2)Man(a1-6)]Man(b1-4)GlcNAc(b1-4)GlcNAc
# How it was run: as §1
# [26] = biological target: Neu5Ac(a2-3)Gal(b1-3)GlcNAc(b1-3)Gal(b1-3)GlcNAc
# How it was run: as §1
# [27] = biological target: Neu5Ac(a2-3)Gal(b1-3)GlcNAc(b1-3)Gal(b1-4)GlcNAc
# How it was run: as §1
# [28] = biological target: Neu5Ac(a2-3)Gal(b1-3)GlcNAc(b1-3)GalNAc
# How it was run: as §1
# [29] = biological target: Neu5Ac(a2-3)Gal(b1-3)GlcNAc(b1-4)Gal(b1-4)Glc
# How it was run: as §1
# [30] = biological target: Neu5Ac(a2-3)Gal(b1-3)GlcNAc(b1-6)GalNAc
# How it was run: as §1
binder,measurement,setting,value
B1,glycan array binding signal (z-score),[1],-0.258
same,glycan array binding signal (z-score),Kdn(a2-3)Gal(b1-3)GalNAc,0.731
same,glycan array binding signal (z-score),Kdn(a2-3)Gal(b1-3)GlcNAc,-0.281
same,glycan array binding signal (z-score),Kdn(a2-3)Gal(b1-4)Glc,-0.248
same,glycan array binding signal (z-score),Kdn(a2-3)Gal(b1-4)GlcNAc,-0.27
same,glycan array binding signal (z-score),[2],-0.24
same,glycan array binding signal (z-score),Kdn(a2-6)Gal(b1-4)GlcNAc,-0.248
same,glycan array binding signal (z-score),[3],-0.265
same,glycan array binding signal (z-score),[4],-0.215
same,glycan array binding signal (z-score),Man(a1-2)Man(a1-3)Man,-0.273
same,glycan array binding signal (z-score),[5],-0.266
same,glycan array binding signal (z-score),[6],-0.249
same,glycan array binding signal (z-score),[7],-0.228
same,glycan array binding signal (z-score),[8],-0.265
same,glycan array binding signal (z-score),[9],-0.251
same,glycan array binding signal (z-score),[10],-0.296
same,glycan array binding signal (z-score),Man(a1-3)[Man(a1-6)]Man,-0.263
same,glycan array binding signal (z-score),[11],-0.019
same,glycan array binding signal (z-score),[12],-0.207
same,glycan array binding signal (z-score),[13],-0.117
same,glycan array binding signal (z-score),[14],0.035
same,glycan array binding signal (z-score),[15],0.173
same,glycan array binding signal (z-score),Man(a1-6)Man,-0.21
same,glycan array binding signal (z-score),Man(b1-4)GlcNAc,-0.266
same,glycan array binding signal (z-score),MurNAc(b1-4)GlcNAc,-0.25
same,glycan array binding signal (z-score),Neu5Ac(a2-3)Gal,-0.253
same,glycan array binding signal (z-score),[16],1.43
same,glycan array binding signal (z-score),[17],-0.183
same,glycan array binding signal (z-score),[18],-0.336
same,glycan array binding signal (z-score),[19],-0.262
same,glycan array binding signal (z-score),[20],-0.262
same,glycan array binding signal (z-score),[21],-0.267
same,glycan array binding signal (z-score),[22],-0.259
same,glycan array binding signal (z-score),[23],-0.194
same,glycan array binding signal (z-score),[24],-0.268
same,glycan array binding signal (z-score),[25],-0.209
same,glycan array binding signal (z-score),[26],-0.279
same,glycan array binding signal (z-score),[27],-0.274
same,glycan array binding signal (z-score),[28],1.07
same,glycan array binding signal (z-score),[29],-0.223
same,glycan array binding signal (z-score),[30],-0.282
